Where “and” joins values, the source holds several entries; their conditions need not be identical. Equal values may be shown once. The campaign covered roughly 150,000 compounds. About 6,500 (4.3%) were called active. Inconclusive means that the source gave no clear call. Such entries were picked first, then a sample of the others. Calls come from the whole dose curve; as a rule, active = well fitted inhibition curve with a large enough effect (not every such curve was filed as active); inconclusive = small, poorly fitted or top-dose-only effect, or another doubt; inactive = no such curve, though single readings can be large or run the other way. Potencies of inconclusive entries are doubtful fits and often do not repeat.
Biological target: 15-hydroxyprostaglandin dehydrogenase [NAD(+)] (Homo sapiens) (UniProt P15428)
UniProt P15428, sequence (P15428 whole entry, looked up): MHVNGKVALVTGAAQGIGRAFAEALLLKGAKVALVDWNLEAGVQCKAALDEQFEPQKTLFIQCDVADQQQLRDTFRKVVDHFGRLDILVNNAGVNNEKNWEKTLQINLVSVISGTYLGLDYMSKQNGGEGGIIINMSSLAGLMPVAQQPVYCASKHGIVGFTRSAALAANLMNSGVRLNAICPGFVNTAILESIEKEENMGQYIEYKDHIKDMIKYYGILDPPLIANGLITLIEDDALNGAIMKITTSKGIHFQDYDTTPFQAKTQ
Test: qHTS Assay for Inhibitors of HPGD (15-Hydroxyprostaglandin Dehydrogenase)
Details: purified HPGD, NADH fluorescence kinetic, PGE2 substrate; activity change, negative = inhibition: active compounds read low
How it was run: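 NADH formation kinetics: reaction with 30 uM PGE2 and 1 mM NAD+ (final), 20 nM enzyme, Tris-HCl pH 8 with Tween 20, after 15 min compound preincubation at room temperature. Fluorescence change, last versus first of five reads.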
% is set by controls: 0 for no effect and ±100 for the full control effect; potency is the fitted concentration of half-maximal effect; tags give direction and shape of the fitted curve.

Row | SMILES | Potency | activity change, negative = inhibition
1 | CS(=O)(=O)Nc1cccc(-c2ccc3ncnc(Nc4ccc(F)cc4)c3c2)c1 | inconclusive: 28.2 µM [inhibitor, partial curve] | 
2 | CC1(C)CC(=O)c2cc(OCC(=O)N3CCOCC3)ccc2O1 | inconclusive: 31.6 µM [inhibitor, partial curve] | 
3 | O=C(Nc1ccccc1C(=O)O)c1ccc2ccccc2n1 | inconclusive: 20 µM [inhibitor, partial curve] | 
4 | O=c1[nH]c2cc3c(cc2cc1CN(CC1CCCO1)S(=O)(=O)c1ccc(Cl)cc1)OCCO3 (stereo unspecified) | inconclusive: 35.5 µM [inhibitor, partial curve] | 
5 | Nc1nc(Cn2nnc(-c3ccccc3Cl)n2)nc(N2CCOCC2)n1 |  | inactive: -4.53%
6 | CCOC(=O)c1c(NC(=O)c2ccccc2Cl)sc2c1CCc1ccccc1-2 | inconclusive: 14.1 µM [inhibitor, partial curve] | 
7 | COc1cc(CNC2CCCC2)cc(Cl)c1OCc1ccc(F)cc1 |  | inactive: 0.0063%
8 | COc1ccccc1-c1nc(NCc2cnc(C)cn2)c2ccccc2n1 | inconclusive: 28.2 µM [inhibitor, partial curve] | 
9 | O=C(COC(=O)c1ccccc1Nc1ccc(SC(F)F)cc1)NC1CC1 | inconclusive: 12.6 µM [inhibitor, partial curve] | 
10 | Cc1nn(Cc2ccc(C(=O)Nc3ccc(C(=O)OC(C)C)cc3)o2)c(C)c1Cl | inconclusive: 31.6 µM [inhibitor, single point] | 
11 | N#Cc1c(NCCN)nc(-c2ccco2)c2c1CCCC2 | inconclusive: 28.2 µM [inhibitor, partial curve] | 
12 | S=C(c1ccccc1)N(c1ccccc1)c1ccccc1 | inconclusive: 28.2 µM [inhibitor, partial curve] | 
13 | COc1ccc(NS(=O)(=O)c2ccc(O)c(C(=O)OCC(=O)Nc3ccc4c(c3)OCCO4)c2)cc1 | inconclusive: 22.4 µM [inhibitor, partial curve] | 
14 | Cc1cc(C)nc(NS(=O)(=O)c2ccc(N/C=C/C(=O)c3ccc(Cl)c(Cl)c3)cc2)n1 | inconclusive: 15.8 µM [inhibitor, partial curve] | 
15 | N#Cc1cc(Sc2ccccn2)c(Sc2ccccn2)cc1C#N | inconclusive: 39.8 µM [inhibitor, single point] | 
16 | O=C(O)CCCC(=O)Nc1cccc(-c2nc3ccccc3[nH]2)c1 | inconclusive: 28.2 µM [inhibitor, partial curve] | 
17 | Cc1c(C(=O)Nc2ccccc2)oc2c1C(=O)CC(C)(C)C2 |  | inactive: -21.9%
18 | CCCCC[C@H](O)/C=C/C=C\C/C=C\CCCCC(=O)O |  | inactive: 1.51%
19 | CC1CCN(C(=S)NC(=O)c2ccccc2)CC1 |  | inactive: -10.8%
20 | CCOC(=O)c1sc(NC(=O)c2ccccc2)cc1C | inconclusive: 39.8 µM [inhibitor, single point] | 
21 | Cc1nc(-c2ccccc2)c(-c2ccccc2)[nH]1 | inconclusive: 17.8 µM [inhibitor, partial curve] | 
22 | Cc1nn(-c2cccc(Cl)c2)c2nc(-c3ccco3)cc(C(=O)O)c12 | inconclusive: 25.1 µM [inhibitor, partial curve] | 

Row | SMILES | Potency | activity change, negative = inhibition
23 | O=C1C[C@@H]2CCN3C(=O)CCC[C@@H]([C@H]23)[C@@H]1Cc1ccccc1 |  | inactive: -1.42%
24 | COc1cc(CNc2ccc3[nH]c(=O)[nH]c3c2)ccc1OCC(=O)NC(C)(C)C | inconclusive: 31.6 µM [inhibitor, partial curve] | 
25 | CCC(=O)c1cc2c(cc1NC(=O)c1ccccc1)OCCO2 | inconclusive: 28.2 µM [inhibitor, partial curve] | 
26 | CCOC(=O)CSc1ncnc2c1cnn2-c1ccc(Cl)cc1 | inconclusive: 8.91 µM [inhibitor, partial curve] | 
27 | Oc1ccc(/C=C\c2cc(O)cc(O)c2)cc1 | inconclusive: 15.8 µM [inhibitor, partial curve] and inconclusive: 35.5 µM [inhibitor, partial curve] | 
28 | O=C(NCc1ccco1)c1cnn2c(C(F)(F)F)cc(-c3ccco3)nc12 | inconclusive: 14.1 µM [inhibitor, partial curve] | 
29 | Oc1ccccc1/C=N/Nc1ccccc1 | inconclusive: 17.8 µM [inhibitor, partial curve, poor fit] | 
30 | CCc1cccc(NC(=O)Cn2ncn3c(cc4ccccc43)c2=O)c1 | inconclusive: 35.5 µM [inhibitor, partial curve] | 
31 | CCOc1ccccc1-c1nc(-c2cc3ccccc3nc2OC)no1 | inconclusive: 20 µM [inhibitor, partial curve] | 
32 | CCOc1ccc(OCCCCn2ccnc2)cc1 |  | inactive: -7.44%
33 | CC(C)(C)Nc1oc(-c2ccccc2)nc1-c1ccc(C(F)(F)F)cc1 |  | inactive: -9.1%
34 | O=C(O)c1cc(O)c2c(c1)[C@H]([C@H]1c3cc(C(=O)O)cc(O)c3C(=O)c3c(O[C@@H]4OC(CO)C(O)C(O)C4O)cccc31)c1cccc(O[C@@H]3OC(CO)C(O)C(O)C3O)c1C2=O (stereo partly specified) | active: 7.94 µM | 
35 | CCOC(=O)c1cc2c(=O)n3ccccc3nc2n(CCOC)c1=NC(=O)C(C)(C)C | inconclusive: 3.16 µM [inhibitor, full curve] | 
36 | O=C(CSc1ccccn1)c1ccc(F)cc1 | active: 25.1 µM | 
37 | Cc1noc(C)c1S(=O)(=O)Nc1ccc(C(=O)N2CCc3ccccc3C2)cc1 | inconclusive: 25.1 µM [inhibitor, partial curve, poor fit] | 
38 | c1ccc2sc(Nc3nc4cc5c(cc4s3)OCO5)nc2c1 | inconclusive: 28.2 µM [inhibitor, partial curve] | 
39 | CC1OC(OC2C(CO)OC(OC3C(CO)OC(O)C(O)C3O)C(O)C2O)C(O)C(O)C1NC1C=C(CO)C(O)C(O)C1O (stereo unspecified) |  | inactive: -14.9%
40 | COc1ccc(-c2cc(C(F)(F)F)nc(NCc3ccco3)n2)cc1OC | inconclusive: 31.6 µM [inhibitor, single point] | 
41 | CN(C(=O)c1cccc(Nc2ccc(-c3ccc4c(c3)OCCO4)nn2)c1)C1CCCCC1 | inconclusive: 25.1 µM [inhibitor, partial curve] | 
42 | Cc1noc(C)c1C(=O)N1CCC[C@@]2(CCN(Cc3cc(C(F)(F)F)cc(C(F)(F)F)c3)C2)C1 |  | inactive: -1.18%
43 | Cc1ccc(NC(=O)COC(=O)/C=C/c2cccs2)c(C)c1 |  | inactive: -23.4%
44 | Cc1ccc(NC(=O)COc2ccc(CCO)cc2-n2nc3ccccc3n2)cc1C | inconclusive: 31.6 µM [inhibitor, partial curve] | 

Row | SMILES | Potency | activity change, negative = inhibition
45 | O=C(CCS(=O)(=O)c1cccc2nonc12)N1CCOCC1 |  | inactive: 0.878%
46 | Cc1sc2nc(SCC(=O)NCc3ccco3)[nH]c(=O)c2c1C | active: 7.94 µM | 
47 | CC(C)(C)C1CCc2c(sc3c2C(=O)NC(c2ccco2)N3)C1 (stereo unspecified) | inconclusive: 39.8 µM [inhibitor, single point] | 
48 | CCOC(=O)c1[nH]c(CSc2nnc(-c3ccncc3)n2CCOC)c(C(=O)OCC)c1C |  | inactive: -2.59%
49 | COC(=O)c1c(NC(=S)Nc2cc(OC)c(Cl)cc2OC)sc2c1CCCCC2 | inconclusive: 28.2 µM [inhibitor, partial curve] | 
50 | COCC(=O)N1CCC[C@@]2(CCN(C(c3ccccc3)c3ccccc3)C2)C1 |  | inactive: -2.67%
51 | Cc1sc2ncnc(Sc3nnnn3-c3ccc(Cl)cc3)c2c1C | inconclusive: 20 µM [inhibitor, partial curve] | 
52 | Cc1[nH]nc2c1C(c1ccc(F)cc1)C(C#N)=C(N)O2 (stereo unspecified) |  | inactive: -1.31%
53 | COc1ccc2ccccc2c1C(=O)/C=C\c1ccoc1 | inconclusive: 31.6 µM [inhibitor, single point] | 
54 | COCCN(CCOC)S(=O)(=O)c1ccc(C(=O)Nc2nc(-c3ccncc3)cs2)cc1 | inconclusive: 35.5 µM [inhibitor, single point] | 
55 | CCOc1ccc2c(c1)C(C)=CC(C)(C)N2C(=O)Nc1ccccc1F | inconclusive: 31.6 µM [inhibitor, partial curve] | 
56 | O=C(/C=C/c1ccccc1)NCCC1=CCCCC1 | active: 28.2 µM | 
57 | COc1ccc2c(=O)c(OC)c(-c3ccccc3)oc2c1 | inconclusive: 3.98 µM [inhibitor, full curve] | 
58 | CCCn1c(CCC(=O)Nc2ccccc2Cc2ccccc2)nc2cc(S(=O)(=O)N3CCOCC3)ccc21 |  | inactive: 0.917%
59 | Cc1ccc(O)c(Sc2cc(C)ccc2O)c1 | active: 15.8 µM | 
60 | O=C(c1c(Cl)nc2sccn12)N1CCN(c2cccc(Cl)c2)CC1 | inconclusive: 17.8 µM [inhibitor, partial curve] | 
61 | CC1Cc2ccccc2N1C(=O)CN1CCC(n2nnc3cc(C(F)(F)F)ccc32)CC1 (stereo unspecified) | inconclusive: 35.5 µM [inhibitor, partial curve] | 
62 | Fc1ccc(C(c2nnnn2C2CCCC2)N(Cc2ccco2)CC2CCCO2)cc1 (stereo unspecified) | inconclusive: 5.62 µM [inhibitor, single point] | 
63 | Cc1ccc(-c2nc(N)c3c(-c4ccc(C)cc4)nn(C(C)(C)C)c3n2)cc1 | inconclusive: 35.5 µM [inhibitor, single point] | 
64 | O=C(Cn1nnc(-c2ccccc2NC(=O)c2ccco2)n1)Nc1ccccc1 | inconclusive: 35.5 µM [inhibitor, single point] | 
65 | CCOc1ccc(-c2nc(C#N)c(NCc3ccc4c(c3)OCO4)o2)cc1 | inconclusive: 25.1 µM [inhibitor, partial curve] | 
66 | Cc1nc2cc(-c3sccc3-n3cccc3)nn2c(C)c1C | inconclusive: 31.6 µM [inhibitor, partial curve] | 
